{
  "source": "PubChem BioAssay AID504332",
  "about": "(National Center for Advancing Translational Sciences (NCATS), 2011)",
  "note": "Screen size: about 350,000 compounds; about 31,000 (8.9%) were called active. The shares of active, inactive and inconclusive entries below differ from those in the screen. Calls come from the whole dose curve; as a rule, active = well fitted inhibition curve with a large enough effect; inconclusive = small, poorly fitted or top-dose-only effect; inactive = no such curve, though single readings can be large or run the other way. Potencies beside an inconclusive call are fits to weak or partial responses and may not hold up. % is set by controls: 0 for no effect and ±100 for the full control effect; potency is the fitted concentration of half-maximal effect; tags give direction and shape of the fitted curve.",
  "data": [
    {"molecular_target": "Histone-lysine N-methyltransferase EHMT2 (Homo sapiens) (UniProt Q96KQ7)", "sequence (Q96KQ7 whole entry, looked up)": "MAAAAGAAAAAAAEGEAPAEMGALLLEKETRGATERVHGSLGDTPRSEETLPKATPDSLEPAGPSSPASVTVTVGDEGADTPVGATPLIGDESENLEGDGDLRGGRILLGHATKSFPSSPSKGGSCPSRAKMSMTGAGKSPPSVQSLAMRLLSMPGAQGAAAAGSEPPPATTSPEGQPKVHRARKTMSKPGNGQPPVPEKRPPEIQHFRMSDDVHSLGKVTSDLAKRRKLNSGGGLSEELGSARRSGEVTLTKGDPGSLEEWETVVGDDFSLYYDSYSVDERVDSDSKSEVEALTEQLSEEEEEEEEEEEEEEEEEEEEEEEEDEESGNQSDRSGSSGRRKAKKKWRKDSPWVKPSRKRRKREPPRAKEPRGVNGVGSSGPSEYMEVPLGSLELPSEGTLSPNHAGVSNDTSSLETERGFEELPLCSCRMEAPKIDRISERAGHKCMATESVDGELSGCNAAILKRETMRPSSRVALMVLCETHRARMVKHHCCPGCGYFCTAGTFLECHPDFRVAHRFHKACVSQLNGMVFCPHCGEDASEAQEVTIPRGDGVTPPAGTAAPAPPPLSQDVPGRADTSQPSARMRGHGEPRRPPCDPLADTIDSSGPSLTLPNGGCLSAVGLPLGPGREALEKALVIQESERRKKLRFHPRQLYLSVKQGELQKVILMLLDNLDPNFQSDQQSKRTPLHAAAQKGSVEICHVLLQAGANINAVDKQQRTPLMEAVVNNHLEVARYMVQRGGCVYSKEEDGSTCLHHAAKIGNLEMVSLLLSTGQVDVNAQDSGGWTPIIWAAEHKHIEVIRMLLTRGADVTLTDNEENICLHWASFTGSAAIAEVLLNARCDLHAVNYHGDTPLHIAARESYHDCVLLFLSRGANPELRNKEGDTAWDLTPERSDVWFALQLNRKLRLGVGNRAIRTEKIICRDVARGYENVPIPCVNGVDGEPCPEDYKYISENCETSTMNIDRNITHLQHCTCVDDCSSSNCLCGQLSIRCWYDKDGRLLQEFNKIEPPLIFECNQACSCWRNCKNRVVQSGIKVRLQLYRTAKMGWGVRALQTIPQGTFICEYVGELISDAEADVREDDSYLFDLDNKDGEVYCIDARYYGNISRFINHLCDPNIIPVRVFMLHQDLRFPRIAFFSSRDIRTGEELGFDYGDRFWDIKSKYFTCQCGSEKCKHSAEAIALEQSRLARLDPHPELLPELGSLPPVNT", "assay": "qHTS Assay for Inhibitors of Histone Lysine Methyltransferase G9a; note: nearly all actives have a fitted effect of over 75% in size", "details": "G9a H3K9 monomethylation, AlphaScreen, 2 h; activity, negative = inhibition: at 59 µM (top of the series) unless noted", "summary_of_the_method": "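Readings reflect AlphaScreen signal from monomethyl-H3K9 antibody detection. HMT at 20 nM; substrate b-H3K9 500 nM; cofactor SAM 20 uM; 2 h RT reaction; compounds tested as titrations in qHTS with 15 min preincubation.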", "values": [
      {"compound": "CCC(=O)N1CCc2cc(CNS(=O)(=O)c3c(C)cc(C)cc3C)ccc21", "Potency": "inactive"},
      {"compound": "CCCCC1CCC(C(=O)OC(C)C(=O)Nc2ccc(NC(C)=O)cc2)CC1", "note": "(stereo not drawn)", "Potency": "inconclusive: 89.1 µM [inhibitor, single point]"},
      {"compound": "Cn1cccc1CNC(=S)Nc1ccccc1Cl", "Potency": "inconclusive: 44.7 µM [inhibitor, partial curve]"},
      {"compound": "O=C(/C=C/c1ccccc1)C1=C(O)C(=O)N(CCO)C1c1ccc2c(c1)OCO2", "note": "(stereo not drawn)", "Potency": "inconclusive: 70.8 µM [inhibitor, single point]"},
      {"compound": "O=C(NCc1cccnc1)C1c2ccccc2C(=O)N1Cc1ccccc1", "note": "(stereo not drawn)", "Potency": "inactive"},
      {"compound": "COc1ccc(S(=O)(=O)NCc2cccnc2)cc1NC(=O)c1ccc(C)cc1", "Potency": "inactive"},
      {"compound": "CCOC(=O)c1cnc2c(OC)cccc2c1N1CCN(c2ccccc2OC)CC1", "Potency": "inconclusive: 56.2 µM [inhibitor, partial curve, poor fit]"},
      {"compound": "CSc1nccc(NC(=O)c2cccc(Br)c2)n1", "activity, negative = inhibition": "inactive: 35.2% [at 0.501 µM]"},
      {"compound": "CC1=C(C(=O)Nc2cccnc2)C(c2ccccc2)n2nc(SCc3ccccc3)nc2N1", "note": "(stereo not drawn)", "Potency": "inactive"},
      {"compound": "COC(=O)c1ccccc1NC(=O)c1cc(-c2ccc(Cl)cc2)on1", "Potency": "inactive"},
      {"compound": "O=C(CSc1nnc(-c2ccc(O)cc2)n1Cc1ccco1)c1cccs1", "activity, negative = inhibition": "inconclusive: -105% [inhibitor]"},
      {"compound": "Cc1ccc(C(=O)Oc2cc(-c3ccccc3)no2)cc1", "Potency": "inactive"},
      {"compound": "CN(C(=O)CSc1nncc2ccccc12)C1CCCCC1", "Potency": "active: 50.1 µM"},
      {"compound": "CC1CCc2nc3ncn(Cc4ccc(Cl)cc4)c(=O)c3cc2C1", "note": "(stereo not drawn)", "Potency": "inactive"},
      {"compound": "CCCCOc1ccc(C(=O)Nc2ccc(S(=O)(=O)Nc3nc(C)cc(C)n3)cc2)cc1", "Potency": "inconclusive: 0.447 µM [inhibitor, full curve, poor fit]"},
      {"compound": "Nn1c(SCC(=O)Nc2ccc(F)cc2)nnc1-c1cccnc1", "Potency": "inconclusive: 39.8 µM [inhibitor, single point]"},
      {"compound": "CCOC(CNC(=O)C(=O)NCC(c1ccco1)N1CCN(c2ccc(OC)cc2)CC1)OCC", "note": "(stereo not drawn)", "Potency": "active: 79.4 µM"},
      {"compound": "Cc1ccc(C(=O)N[C@@H](C)CN2C3=NC[C@H](C(C)C)N3C[C@H]2Cc2ccc(O)cc2)cc1Br", "activity, negative = inhibition": "inconclusive: -96% [inhibitor]"},
      {"compound": "CCc1ccc2ncc(S(=O)(=O)c3ccc(Cl)cc3)c(N3CCN(CC)CC3)c2c1", "Potency": "inactive"},
      {"compound": "CCN(CC)C(=O)C(=O)c1cn(CC(=O)N2CCc3ccccc3C2)c2ccccc12", "Potency": "inconclusive: 56.2 µM [inhibitor, partial curve, poor fit]"},
      {"compound": "C=CCOc1ccc(C2C(C(=O)c3ccco3)=C(O)C(=O)N2Cc2cccnc2)cc1", "note": "(stereo not drawn)", "activity, negative = inhibition": "inconclusive: -52.6% [inhibitor]"},
      {"compound": "Cc1cccc(OCCn2nnc3ccccc32)c1C", "Potency": "inactive"},
      {"compound": "CCC(C)n1c(-c2cccc(S(=O)(=O)N(CC)CC)c2)n[nH]c1=S", "note": "(stereo not drawn)", "Potency": "active: 8.91 µM"},
      {"compound": "CCCC(=O)Nc1cc(S(=O)(=O)N(CC)CC)ccc1Cl", "Potency": "inconclusive: 6.31 µM [inhibitor, partial curve, poor fit]"},
      {"compound": "N#Cc1ccccc1S(=O)(=O)N1CCN(C(=O)CN2CCCC2c2cccs2)CC1", "note": "(stereo not drawn)", "Potency": "inconclusive: 8.91 µM [inhibitor, single point]"},
      {"compound": "CCC(C)(C)n1nnnc1C(c1ccc(OC)c(OC)c1)N1CCN(C(=O)c2ccco2)CC1", "note": "(stereo not drawn)", "Potency": "inconclusive: 89.1 µM [inhibitor, single point]"},
      {"compound": "O=C(c1c(F)cccc1F)N1CCC(O)(c2ccc(F)cc2)CC1", "Potency": "inconclusive: 89.1 µM [inhibitor, single point]"},
      {"compound": "COc1ncc2nc(-c3cn(C)c4ccccc34)c(=O)n(CCC#N)c2n1", "activity, negative = inhibition": "inactive: 11.7% [at 0.501 µM]"},
      {"compound": "OC(COc1ccc2c(c1)OCO2)CN1CCc2ccccc2C1", "note": "(stereo not drawn)", "Potency": "inconclusive: 50.1 µM [inhibitor, partial curve, poor fit]"},
      {"compound": "C=CCc1cc(OC)ccc1OCCN1CC(C)OC(C)C1", "note": "(stereo not drawn)", "Potency": "active: 7.08 µM"},
      {"compound": "O=C(NC(=S)Nc1ccccc1N1CCCC1)c1cccs1", "Potency": "active: 15.8 µM"},
      {"compound": "COc1cccc(CC(=S)N2CCOCC2)c1", "Potency": "inactive"},
      {"compound": "Cc1ccccc1NC(=O)CSc1nc(-c2ccc(F)cc2)nc2c1Cc1ccccc1O2", "Potency": "inactive"},
      {"compound": "Cc1ccc(NC(=S)N(CCCN2CCCC(C)C2)Cc2ccco2)cc1C", "note": "(stereo not drawn)", "Potency": "inconclusive: 39.8 µM [inhibitor, partial curve]"},
      {"compound": "COc1ccc(S(=O)(=O)N2CCOCC2)cc1NC(=O)CCNC(=O)c1ccc(Br)cc1", "Potency": "active: 15.8 µM"},
      {"compound": "Cn1c(=O)n(-c2ccc3c(c2)OCO3)c2nc(-c3ccc(Cl)cc3)nc(C(N)=O)c21", "Potency": "inactive"},
      {"compound": "Cc1ccc(C)n1NC(=O)c1ccccc1Cl", "activity, negative = inhibition": "inconclusive: -80% [inhibitor]"},
      {"compound": "Cc1sc2ncnc(SCC(=O)Nc3ccc(CN4CCCC4)cc3)c2c1C", "activity, negative = inhibition": "inactive: 10.2% [at 12.7 µM]"},
      {"compound": "O=C(CCC1N=C2c3ccccc3N=C(SCc3ccccc3Cl)N2C1=O)NCCc1ccccc1", "note": "(stereo not drawn)", "Potency": "inconclusive: 4.47 µM [inhibitor, single point]"},
      {"compound": "Cc1nc(Nc2ccc(Cl)c(Cl)c2)sc1C(=O)Nc1ccccc1", "Potency": "inconclusive: 15.8 µM [inhibitor, single point]"},
      {"compound": "Cc1cc(C)nc(NS(=O)(=O)c2ccc(NC(=O)c3ccccc3O)cc2)n1", "Potency": "inactive"},
      {"compound": "COc1ccc2c(Sc3ccccc3)c(C(=O)NCC(C)c3ccccc3)[nH]c2c1", "note": "(stereo not drawn)", "Potency": "inactive"},
      {"compound": "O=C(Oc1ccc(=O)n(-c2ccccc2)n1)c1ccccc1", "Potency": "inconclusive: 79.4 µM [inhibitor, single point]"},
      {"compound": "c1ccc(OCc2nn3c(-c4ccccn4)nnc3s2)cc1", "Potency": "inconclusive: 22.4 µM [inhibitor, partial curve, poor fit]"},
      {"compound": "COc1cccc(-c2nn(-c3ccccc3)cc2CO)c1", "Potency": "inactive"},
      {"compound": "O=C(CCSCCC(=O)N1CCCC1)N1CCCC1", "Potency": "inconclusive: 15.8 µM [inhibitor, partial curve, poor fit]"},
      {"compound": "CCS(=O)(=O)N1CC(=O)N(c2ccc(Cl)cc2C)C(C)(C(=O)NC2CCCCCC2)C1", "note": "(stereo not drawn)", "Potency": "inactive"},
      {"compound": "c1csc(-c2nnc(N3CCOCC3)c3ccccc23)c1", "Potency": "active: 39.8 µM"},
      {"compound": "Cc1c(NC(=S)NNC(=O)CCC(=O)O)c(=O)n(-c2ccccc2)n1C", "activity, negative = inhibition": "inconclusive: -56.7% [inhibitor]"},
      {"compound": "O=S(=O)(Nc1nc2ccccc2nc1Nc1ccc(N2CCOCC2)cc1)c1cc(Cl)ccc1Cl", "Potency": "inconclusive: 3.16 µM [inhibitor, single point]"},
      {"compound": "CCCc1c(C)nc2ccccc2c1SCCC#N", "Potency": "inactive"},
      {"compound": "COc1ccccc1OCCNc1nc2c(c(=O)n(C)c(=O)n2C)n1C", "Potency": "inactive"},
      {"compound": "COc1cc(OC)c(NC(=O)C(c2ccccc2)N2Cc3ccccc3C2=O)cc1Cl", "note": "(stereo not drawn)", "Potency": "inconclusive: 35.5 µM [inhibitor, partial curve, poor fit]"},
      {"compound": "CC(C)CC1CC(C)(c2csc(NNC(=O)c3ccccc3)n2)OC1=O", "note": "(stereo not drawn)", "Potency": "active: 44.7 µM"},
      {"compound": "CC(=O)NC(CC(=O)NNC(=O)c1cc2ccccc2cc1O)c1ccccc1", "note": "(stereo not drawn)", "Potency": "inactive"},
      {"compound": "CCC(=O)Nc1ccc2c(c1)nc1n2CCSC1", "Potency": "inconclusive: 50.1 µM [inhibitor, partial curve, poor fit]"},
      {"compound": "O=C(NCCO)C(=O)NCC1OCCCN1S(=O)(=O)c1cc(F)ccc1F", "note": "(stereo not drawn)", "Potency": "inactive"},
      {"compound": "O=C(COc1ccccc1)Nc1ccc(-c2ccc(N3CCOCC3)nn2)cc1", "Potency": "inconclusive: 50.1 µM [inhibitor, partial curve, poor fit]"},
      {"compound": "CN1CCc2c(n(CC(O)CN3CCN(CCO)CC3)c3ccccc23)C1=O", "note": "(stereo not drawn)", "Potency": "inconclusive: 39.8 µM [inhibitor, single point]"},
      {"compound": "O=C(C1CCN(C2CC(=O)N(c3ccc(F)cc3)C2=O)CC1)N1CCOCC1", "note": "(stereo not drawn)", "activity, negative = inhibition": "inconclusive: -88.3% [inhibitor]"},
      {"compound": "CCCCn1c(N)c(N(CC(C)C)C(=O)C2CCN(C(=O)c3ccc(Cl)cc3)CC2)c(=O)[nH]c1=O", "Potency": "inconclusive: 35.5 µM [inhibitor, full curve, poor fit]"},
      {"compound": "O=C(Nc1ccc(F)cc1)Nc1cc(S(=O)(=O)N2CCOCC2)ccc1N1CCCC1", "Potency": "active: 35.5 µM"},
      {"compound": "CCOC(=O)c1c(C)[nH]c(C(=O)N(C)Cc2cccc(OC)c2OC)c1C", "Potency": "inconclusive: 56.2 µM [inhibitor, partial curve, poor fit]"},
      {"compound": "COCCNC(=O)C(c1ccncc1)N(C(=O)Cn1nnc2ccccc21)c1ccc(OC)cc1", "note": "(stereo not drawn)", "Potency": "inconclusive: 31.6 µM [inhibitor, single point]"},
      {"compound": "COc1ccc(N(CC(=O)N2c3ccccc3CC2C)S(=O)(=O)c2c(C)nn(C)c2C)cc1", "note": "(stereo not drawn)", "Potency": "inconclusive: 89.1 µM [inhibitor, single point]"},
      {"compound": "CCN(CC)c1ccc(-n2c(C)c(C(C)=O)c(C(C)=O)c2C)cc1", "Potency": "inconclusive: 20 µM [inhibitor, single point]"},
      {"compound": "Cn1c(C(=O)N2CCCc3ccccc32)cc2sccc21", "Potency": "inconclusive: 44.7 µM [inhibitor, partial curve, poor fit]"},
      {"compound": "CCNc1nnc(CSc2nc3ccccc3s2)s1", "Potency": "active: 4.47 µM"},
      {"compound": "COc1ccccc1C1CC(c2ccc(Cl)cc2)Nc2nc(N)nn21", "note": "(stereo not drawn)", "Potency": "inactive"},
      {"compound": "COC(=O)CC1COc2ccccc2N1S(=O)(=O)c1ccc(OC)cc1", "note": "(stereo not drawn)", "Potency": "inconclusive: 0.891 µM [inhibitor, single point]"},
      {"compound": "Cc1nc2cnc(N3CCN(C)CC3)nc2n(C)c1=O", "activity, negative = inhibition": "inactive: 8.77% [at 0.501 µM]"},
      {"compound": "CCOC(=O)c1ccc(NC(=S)N2CCC(C(N)=O)(N3CCCCC3)CC2)cc1", "Potency": "inconclusive: 0.447 µM [inhibitor, partial curve, poor fit]"},
      {"compound": "Cn1c(CCC(N)=O)nnc1SCC(=O)Nc1cc(S(=O)(=O)N2CCCC2)ccc1Cl", "Potency": "inconclusive: 89.1 µM [inhibitor, single point]"}
    ]}
  ]
}
